Molecules are shown by their SMILES. Hit rate of the full screen: of about 48,000 compounds, about 1,200 (2.5%) were called active. About 2% were inconclusive and are not listed.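 How the source made its calls: active means activation of at least 60% and not above a set upper limit (about 1 call in 100 departs from these limits); inconclusive means activation of 40% to 60%, or above that upper limit; inactive means activation under 40%.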 Some of the results follow.

Sequence of UniProt O75388 (O75388 whole entry, looked up, the tested form may be a part): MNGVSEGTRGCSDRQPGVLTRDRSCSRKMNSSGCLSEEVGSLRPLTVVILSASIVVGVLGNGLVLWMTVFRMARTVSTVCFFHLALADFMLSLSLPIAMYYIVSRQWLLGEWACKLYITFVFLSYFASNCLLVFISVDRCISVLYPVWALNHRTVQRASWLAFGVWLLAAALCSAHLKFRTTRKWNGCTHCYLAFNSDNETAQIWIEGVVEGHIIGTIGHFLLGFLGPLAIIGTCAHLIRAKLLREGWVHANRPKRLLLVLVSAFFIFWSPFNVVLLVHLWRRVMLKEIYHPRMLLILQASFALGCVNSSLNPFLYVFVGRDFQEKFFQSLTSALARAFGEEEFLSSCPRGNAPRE

The assay deals with Probable G-protein coupled receptor 32 (Homo sapiens) (UniProt O75388). Kind of assay: qHTS for Agonists of Human Resolvin D1 Receptor DRV1. Further: 0% is about no effect. As to conditions: CHO-K1 GPR32 beta-arrestin PathHunter luminescence, 90 min; at 76.9 µM; hits give high values; zero percent set by DMSO-only wells. The method in brief:
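Agonism was scored as beta-arrestin recruitment to ProLink-fused GPR32 in stably transfected CHO-K1 cells, giving a chemiluminescent beta-Gal signal; compounds were incubated 90 min at 37 °C.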
For orientation: In qHTS, concentration-response curves come from the screen itself.
Turning to `COc1ccc(N2CCN(C(CNS(=O)(=O)c3ccc(OC)c(C)c3)c3ccco3)CC2)cc1` (centres undefined), the activation was inactive: -33.5%. With `O=C(CCn1c(=O)c2ccccc2n(Cc2cccc(F)c2)c1=O)NCc1ccc2c(c1)OCO2`, the activation was inactive: 2.82%. With `CCOc1ccc(CN2CCN(Cc3ccc4c(c3)c3ccccc3n4CC)CC2)cc1`, the activation is inactive: -9.13%.

`CCc1nn(CC(=O)NCc2ccc(C)cc2)c(=O)c2cc3occc3n12`: the activation is inactive: -17.2%. To `Cc1ccc(-c2c(C(=O)N3CCN(c4ccc(F)cc4)CC3)oc(=O)c3ccccc23)cc1` belongs inactive: -5.9%; to `COc1cc(OC)c(OC)cc1CN1CCc2nc(N3CCN(C)CC3)ncc2C1`, inactive: -1.19%; to `Cc1cc(C)cc(N2C(=O)N(Cc3cc(=O)n4ccccc4n3)c3ccccc3S2(=O)=O)c1`, inactive: -29.1%. The result for `CCOc1ccc(C(=O)/C=C/c2cn(CC(O)CN3CCc4ccccc43)c3ccccc23)cc1` (centres undefined) reads inactive: -15.2%; that for `COc1ccc(N2CCN(c3nc4ccc(C(=O)c5ccccc5)cc4n4cnnc34)CC2)cc1`, inactive: -27.5%; that for `Cc1cccc2c1-c1sc(C(=O)NCCCN3CCN(c4ccccc4F)CC3)cc1CO2`, inactive: 19.7%. Regarding `O=C(CCS(=O)(=O)c1nc(-c2ccc3c(c2)OCO3)cc(C(F)(F)F)n1)Nc1ccc(Br)cc1`, the activation was inactive: -36.4%. For `CCOC(=O)c1c(C)n(C)c2ccc(O)cc12`, the activation was inactive: -1.96%. Take `Cc1ccc(NC(=O)c2oc3ccc(S(=O)(=O)N4CCOCC4)cc3c2C)c(C)c1`: the activation was inactive: 2.59%. Regarding `COc1ccc(CNC(=O)Cc2coc3ccc(C)cc23)cc1`, the activation is inactive: -13.3%. Take `COc1ccc(NC(=O)Cc2c(C(=O)O)[nH]c3ccccc23)cc1OC`: the activation is inactive: 6.44%.

Turning to `COC(=O)c1cccnc1-n1c(=O)c2cccnc2n(CC(=O)Nc2cccc(C)c2)c1=O`, the activation was inactive: 0.301%. As for `COc1ccc(C(=O)Nc2ccc3nc4c(c(Nc5ccccc5OC)c3c2)CCCC4)c(OC)c1`, the activation was inactive: -9.76%. In the case of `COc1cc(C2c3c(oc4ccc(F)cc4c3=O)C(=O)N2Cc2ccc3c(c2)OCO3)ccc1O` (centres undefined), the activation is inactive: -4.7%. `O=C1CC(c2c(F)cccc2Cl)c2c(ccc3ccccc23)N1` (centres undefined): the activation is inactive: 13.5%. For the compound `CCCCN(CC)C(=O)c1c[nH]c2ccc(S(=O)(=O)N(C)c3ccc(Cl)cc3)cc2c1=O`, the activation was active: 91.5%.

As to `CC(C)Oc1ccc(CNC(=O)c2ccc3c(c2)nc2n3CCOC2)cc1`, the activation is inactive: -0.491%. The result for `COc1cc(NC(=O)N2CCSc3ccccc32)cc(OC)c1OC` reads inactive: -30.3%. For `Nc1cc(-c2ccncc2)c[nH]c1=O`, the activation was inactive: 37.1%. `CCN(c1ccccc1C)S(=O)(=O)c1nnc(NC(=O)c2ccccc2C)s1`: the activation was inactive: -4.9%. In the case of `CC(CNC(=O)c1ccc(Cn2c(=O)c3cccn3c3cccnc32)cc1)c1ccccc1` (centres undefined), the activation was inactive: -22.1%. `COc1ccc(-c2c(C)c3cc(OC(=O)N4CCOCC4)ccc3oc2=O)cc1OC`: the activation was inactive: 1%. Turning to `NC(=O)Cn1c(=O)n(CCCCCC(=O)NCc2ccc3c(c2)OCO3)c(=O)c2sccc21`, the activation was inactive: -12.5%.

Consider `COc1cccc(C(=O)CC2(O)C(=O)N(Cc3ccccc3)c3ccccc32)c1` (centres undefined), for which the activation was inactive: -21.3%. To `CCOc1cc2[nH]c(=O)n(CCCCC(=O)N3CCN(c4ccccc4OC)CC3)c(=O)c2cc1OCC` belongs inactive: -6.57%; to `COc1ccc(NC(=O)c2nnn(CC(=O)Nc3ccc(C)c(C)c3)c2N)cc1OC`, active: 91%. The result for `Cc1ccccc1C(=O)Nc1sc2c(c1C(=O)N1CCC(C)CC1)CCC(C)C2` (centres undefined) reads inactive: -24.4%. As to `CCc1cccc(NC(=O)Cn2c(=O)n3nc(-c4cccc(F)c4)nc3c3ccccc32)c1`, the activation was inactive: -10.1%. Regarding `COc1cccc(Cn2nnc(C(=O)NCc3ccc(Cl)cc3Cl)c2N)c1`, the activation is inactive: 1.41%. Turning to `CCOC(=O)C1CCCN(c2c(C(=O)c3ccccc3)cnc3ccc(F)cc23)C1` (centres undefined), the activation was inactive: 1.75%. For `Cc1ccccc1CS(=O)(=O)Cc1ccc(C(=O)NCCc2ccc(Cl)cc2)o1`, the activation is inactive: 2.98%. As to `Cc1cn2c(=O)cc(COC(=O)c3ccc(NC(=O)c4ccccc4C)cc3)nc2s1`, the activation is inactive: -1.35%. Regarding `COc1ccc2c(c1)c1c(c(=O)n(-c3ccc(OC)c(OC)c3)c(=O)n1Cc1ccc(F)cc1)n2C`, the activation is inactive: 27.3%. Regarding `Cc1ccccc1NC(=O)COc1ccc2oc3c(c2c1)CCCC3`, the activation is inactive: -4.47%. Take `CCOC(=O)N1CCC(NC(=O)c2cnn(-c3ccc(OC)cc3)c2C2CCN(C(=O)OC(C)(C)C)CC2)CC1`: the activation is inactive: -6.66%. Consider `Cc1ccc(Cn2c(=O)n(-c3cccc(C(F)(F)F)c3)c(=O)c3c(C)c(C)sc32)c(C)c1`, for which the activation was inactive: 5.76%.

As to `Cc1ccc(CSc2ncc(Cl)c(C(=O)Oc3ccccc3F)n2)cc1`, the activation was inactive: 5.48%. Turning to `Cc1cn(C)c(CC(=O)Nc2cccc(C#N)c2)c1C(=O)O`, the activation was inactive: -5.13%. The result for `Cc1ccc(Cn2c(=O)c3cccnc3n(Cc3ccc(C)cc3)c2=O)cc1` reads inactive: -16.3%; that for `COc1ccc(-c2cc3nc(C)c(CCC(=O)NCCc4ccc(Cl)cc4)c(C)n3n2)c(OC)c1`, inactive: -10.5%. To `O=C(CN1C(=O)COc2ccc(S(=O)(=O)N3CCCCCC3)cc21)N1CCN(c2ccc(F)cc2)CC1` belongs inactive: -1.97%. The result for `Cc1ccc(-c2nn3c(=O)cc(CN4CCN(C(=O)Nc5cccc(C(F)(F)F)c5)CC4)nc3s2)cc1` reads inactive: -6.33%; that for `Cc1ccccc1OCCn1cc(C(=O)c2ccco2)c2ccccc21`, inactive: -8.44%; that for `Cc1ccc(CCNC(=O)c2cnc3c(-c4ccc(F)cc4)c(C)nn3c2C)cc1`, inactive: -9.16%. On to `Clc1ccc(-c2noc3ncnc(NC4CCCCC4)c23)cc1`, for which the activation was inactive: 28.5%. As for `COc1ccc(OC)c(C2CC(=O)c3c([nH]c(C(=O)OCc4ccc(C)cc4)c3C)C2)c1` (centres undefined), the activation was inactive: -21.2%. Take `COc1cc(NC(=O)CN2Cc3ccccc3C2=O)cc(OC)c1OC`: the activation was inactive: -2.11%. As to `Cc1ccc(-c2nc(CCNC(=O)C(=O)Nc3c(C)cccc3C)cs2)cc1`, the activation is inactive: -17.2%.

In the case of `Cn1c(=O)c2c(c3ccccc31)OC(=O)CC2c1cccc(Cl)c1` (centres undefined), the activation was inactive: -10.4%.

Turning to `COc1ccccc1/C=C/c1nc(C#N)c(NCC(C)C)o1`, the activation is inactive: 1.62%. Take `O=C(Cn1ccc2cc(S(=O)(=O)N3CCCCC3)ccc21)NCc1ccccc1Cl`: the activation was inactive: -17.7%. Regarding `CCOCCn1cnc2sc(C(=O)Nc3ccccc3C(=O)OC)c(C)c2c1=O`, the activation was inactive: 4.55%.

Turning to `COc1ccc(N2C(=O)CSC23C(=O)N(Cc2ccc(C)cc2)c2ccccc23)cc1Cl` (centres undefined), the activation is inactive: -34.7%. Take `CCOc1ccc(NC(=O)Cn2nc(Cc3ccncc3)c3ccccc3c2=O)cc1`: the activation is inactive: -15%. On to `CCOc1cccc(CC(=O)N2CCc3c([nH]c4ccccc34)C2c2ccc(SC)cc2)c1OCC` (centres undefined), for which the activation is inactive: 1.34%.

`Cc1c(C(=O)NCCO)[n+](=O)c2ccccc2n1[O-]`: the activation is inactive: -23%.

For `CC(C)Cn1c(=O)c2ccccc2n2c(CCC(=O)Nc3ccc(F)cc3)nnc12`, the activation was inactive: 6.65%. To `CCCN(CCC)C(=O)c1nn(C)c2c1CSc1ccc(C)cc1-2` belongs inactive: 14.9%. In the case of `COc1ccc(-n2ccnc(NCc3ccccc3Cl)c2=O)cc1OC`, the activation was inactive: 6.01%.

For `CCOC(=O)c1cc(-c2ccccc2)n(CCCC(=O)Nc2ccccc2C)c1C`, the activation was inactive: -26.8%. Turning to `COc1ccc(C(=O)c2oc3ccccc3c2NC(=O)c2cccc(OC)c2)cc1`, the activation was inactive: -11.4%. Turning to `COc1ccc(CNC(=O)c2sc3nc4n(c(=O)c3c2C)CCCCC4)cc1`, the activation is inactive: -9.93%.

For `Clc1cccc(C2=NC(c3cccs3)=Nc3ccc(Br)cc3N2)c1`, the activation is inactive: -20.2%. As for `CCc1ccc(NC(=O)CN2C(=O)c3ccccc3Sc3ccc(C(=O)N4CCCC4)cc32)cc1`, the activation is inactive: -18.1%. Turning to `CCOc1ccccc1CNC(=O)c1cnc2sc(N(CC)CC)nn2c1=O`, the activation is inactive: -7.83%. For `CC(C)CN(CCNC(=O)c1cc(-c2cccs2)nc2ccccc12)CC(C)C`, the activation is inactive: -6.31%. Turning to `Cc1ccc2nc(COc3cccc(NC(=O)c4ccccc4Cl)c3)cc(=O)n2c1`, the activation was inactive: 9.76%. Regarding `CCN(CC)CCOC(=O)c1ccc(Nc2c3c(nc4ccccc24)CCC3)cc1`, the activation was inactive: -0.239%. The result for `COc1ccc(CNC(=O)C(CC(C)C)N2Cc3ccccc3C2=O)cc1` (centres undefined) reads inactive: -9.43%; that for `Cc1nc2nc(C)c(NS(=O)(=O)c3ccc(CC(C)C)cc3)c(=O)n2[nH]1`, inactive: -8.99%; that for `CCOc1ccc(OCC)c(NC(=O)C2CCCN(S(=O)(=O)c3cc(Br)cc4c3N(C(=O)CC)CC4)C2)c1` (centres undefined), inactive: -7.59%. The result for `CCCc1nnc(NC(=O)Nc2ccccc2Cl)s1` reads inactive: -16.7%; that for `Cc1nn(C(=O)c2c(F)cccc2F)c(C)c1S(=O)(=O)N1CCCCCC1`, inactive: 14.9%; that for `CCn1c(CN2CCOCC2)nc2cc(NC(=O)c3cccc([N+](=O)[O-])c3)ccc21`, inactive: -12.6%. With `Cn1c(=O)c2c(-c3ccccc3)n(CCCO)cc2n(C)c1=O`, the activation was inactive: -7.27%. For `COc1ccc(NC(=O)Cn2cc(C(=O)c3ccccc3OC)c(=O)c3ccc(C)nc32)cc1OC`, the activation was inactive: 2.27%. With `Cc1ccc(CN2CCC(CNC(=O)Nc3ccc(C)c(C)c3)C2)cc1` (centres undefined), the activation was inactive: -16.9%. To `CC(=O)Nc1nnc2n1CCS2` belongs inactive: -6.81%; to `COc1ccc(C)cc1NC(=O)c1nnn(-c2c(C)cccc2C)c1C`, inactive: -6.24%. The result for `CCOC(=O)c1ccc(N2CCN(c3cc(C)ccc3C)CC2)c(NC(=O)Nc2ccc(Cl)cc2)c1` reads inactive: -13.9%.

Values taken from PubChem BioAssay AID1346428 (National Center for Advancing Translational Sciences (NCATS), 2018).
